# From PubChem BioAssay AID1345083 (National Center for Advancing Translational Sciences (NCATS), 2018)
# The campaign covered roughly 94,000 compounds. About 6,200 (6.6%) were called active. The inconclusive results got no clear call from the source; some entries with a clear call stand among them for comparison. Calls follow the shape of the dose curve; as a rule, active = well fitted inhibition curve with a large enough effect; inconclusive = small, poorly fitted or top-dose-only effect; inactive = flat fitted curve, though single readings scatter. Potencies beside an inconclusive call are fits to weak or partial responses and may not hold up.
# Test: Cytotoxic Profiling in HEK 293 Cell Line of Diverse Libraries Using Quantitative High-Throughput Screening; also: nearly all actives have a fitted effect of over 60% in size
# Conditions: HEK 293 viability, ATP luminescence (CellTiter-Glo), 48-72 h; series mostly up to 115 µM
# Procedure, shortened: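 Luminescence from cellular ATP, measured with CellTiter-Glo, indicates HEK 293 viability. Cells plated at 250 cells/well are treated with compound for 48 or 72 hr at 37 degree Celsius before reagent addition.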
# Potency is read from the fitted curve at half-maximal effect; tags tell the direction and shape of the fitted curve.
row,Compound,Potency
1,COc1cccc(-c2cc(C(=O)N3CCC(Cc4ccccc4)CC3)c3cnn(C)c3n2)c1,active: 44.7 µM
2,Cc1cc(-c2cc(-c3ccccn3)nc3c(C)noc23)ccn1,"inconclusive: 126 µM [inhibitor, partial curve, poor fit]"
3,CC(C)c1nncn1C1CCN(S(=O)(=O)c2cccc(Cl)c2)CC1,inactive
4,CCN1CCN(C(=O)CC2CCCN(c3cnn(CC4CC4)c(=O)c3)C2)CC1 (stereo not given),inactive
5,COC(=O)C1=C(C)N=C2SC=C(CC(=O)NCc3cccc(F)c3)N2C1c1ccccc1 (stereo not given),"inconclusive: 50.1 µM [inhibitor, partial curve, poor fit]"
6,O=C(C1CC1)N1CCCC(N2CCN(c3cccc(C(F)(F)F)c3)CC2)C1 (stereo not given),"inconclusive: 50.1 µM [inhibitor, partial curve, poor fit]"
7,O=C(C1CC1)N1CCCN(c2ccc3nnc(C4CC4)n3n2)CC1,inactive
8,CCC(C)NC(=O)c1cc(-c2ccccc2C(F)(F)F)nc2c1cnn2C (stereo not given),"inconclusive: 50.1 µM [inhibitor, partial curve, poor fit]"
9,CCS(=O)(=O)c1ccc2oc([C@H]3CCN(C4CCCCC4)C3)nc2c1,inactive
10,Cc1cc2nc3n(c(=O)c2n1CC(=O)Nc1ccc2c(c1)OCO2)CCCC3,inactive
11,Cn1nc(-c2cccc(F)c2)c(N2CCCCC2)c1NC(=O)c1ccccc1F,active: 39.8 µM
12,CCN1c2cc(C(=O)Nc3ccc(F)c(F)c3)ccc2C(=O)N2CCCCC21 (stereo not given),active: 39.8 µM
13,Cc1ccc(-n2cc(CN3CCCCC3C(N)=O)c(-c3cccc(C)c3)n2)cc1 (stereo not given),active: 50.1 µM
14,Cc1ccc(-c2cc3c(=O)n(CCNC(=O)Cc4cccs4)ccn3n2)cc1C,"inconclusive: 25.1 µM [inhibitor, full curve]"
15,COCCCNc1ncnc2sc3c(c12)CCN(Cc1cccnc1)C3,"inconclusive: 79.4 µM [inhibitor, single point]"
16,O=C(c1ccccn1)N1CCC(N2CCCC2=O)CC1,"inconclusive: 126 µM [inhibitor, single point]"
17,COC(=O)C1=C(C)N=C2SC=C(CC(=O)NCc3cccc(F)c3)N2C1c1ccccc1OC (stereo not given),"inconclusive: 56.2 µM [inhibitor, partial curve, poor fit]"
18,Cc1ccc(NC(=O)N2CCC(Oc3ncccc3C(=O)N3CCOCC3)C2)c(C)c1 (stereo not given),inactive
19,COc1ccc(CNC(=O)CN2C(=O)NC3(CCC(C(C)(C)C)CC3)C2=O)cc1OC (stereo not given),"inconclusive: 56.2 µM [inhibitor, partial curve, poor fit]"
20,O=C(NCCc1cccs1)c1noc(-c2ccc(F)cc2)n1,"inconclusive: 39.8 µM [inhibitor, partial curve, poor fit]"
21,COCc1ccc2c(c1)c(OC(C)(C)C(=O)N1CC(O)C1)nn2Cc1ccccc1,"inconclusive: 126 µM [inhibitor, single point]"
22,CN1CC2(CCN(Cc3cn[nH]c3-c3cccs3)CC2)CC1C(=O)N1CCOCC1 (stereo not given),inactive
23,CC(C)c1nnc(C2CN(C(=O)c3ccoc3)CC23CCOCC3)o1 (stereo not given),inactive
24,COc1ccccc1C(=O)NCCn1ccn2nc(-c3cc(C)ccc3C)cc2c1=O,"inconclusive: 50.1 µM [inhibitor, partial curve, poor fit]"

row,Compound,Potency
1,CC(C)C(=O)Nc1ccc(C2(C(=O)NCc3cccs3)CCCCC2)cc1,"inconclusive: 89.1 µM [inhibitor, single point]"
2,COC[C@@H]1CCCN1Cc1cc2ccc(C)cc2nc1-c1ccc(OC)cc1,"inconclusive: 79.4 µM [inhibitor, single point]"
3,COC1C(=O)N(c2cccc(F)c2)C12CCN(S(=O)(=O)Cc1ccccc1F)CC2 (stereo not given),active: 39.8 µM
4,O=C(Nc1cccc(OC(F)(F)F)c1)[C@@H]1COCC(=O)N1Cc1ccc(F)cc1,"inconclusive: 89.1 µM [inhibitor, single point]"
5,COc1ccc(-c2cc(N3CCCN(C(=O)Cc4ccc(Cl)cc4)CC3)n[nH]2)cc1,active: 44.7 µM
6,Oc1ccccc1CN1CCOC[C@H]1c1ncc(-c2cccc(Cl)c2)[nH]1,active: 89.1 µM
7,O=C(Cc1cccn1-c1ccc(F)cc1)NC1CCCC1,inactive
8,O=C(Nc1ccc(Cl)cc1Cl)c1cn2c(n1)CN(C(=O)c1ccccc1F)CC2,"inconclusive: 63.1 µM [inhibitor, partial curve, poor fit]"
9,N#Cc1ccc(C(=O)N2CCC3(CC2)NC(=O)N(Cc2cccc(Cl)c2)C3=O)cc1,"inconclusive: 39.8 µM [inhibitor, partial curve]"
10,O=C(NC1CC1)c1cc(C2CC2)nc2c1c(C1CCCN1)nn2-c1ccccc1 (stereo not given),active: 79.4 µM
11,O=C(NCCc1noc(-c2ccncc2)n1)C1CC(=O)N(c2ccc(F)c(Cl)c2)C1 (stereo not given),inactive
12,O=C(c1cccc(C(F)(F)F)c1)N1CCC(c2n[nH]c(=O)n2-c2ccccc2)CC1,inactive
13,CN(C)c1cccc(NC(=O)Cc2c[nH]c3ncc(-c4ccccc4)cc23)c1,"inconclusive: 25.1 µM [inhibitor, full curve, poor fit]"
14,O=C1COc2ccc(-c3ccsc3)nc2CN1Cc1ccccc1,active: 100 µM
15,O=S(=O)(c1ccc(C(F)(F)F)cc1)N1CC(c2nc(-c3ccncc3)no2)C1,"inconclusive: 79.4 µM [inhibitor, partial curve]"
16,Cc1ccc(-c2cn3cc(C(=O)NCc4cccnc4)nc3s2)cc1,active: 44.7 µM
17,COCCOCC1(CNC(=O)c2cnccn2)C[C@@H](O)[C@@H](O)C1 (stereo not given in full),inactive
18,O=C(CN1C(=O)NC(c2ccc(Cl)cc2)C2=C1COC2=O)Nc1cccc(Br)c1 (stereo not given),active: 20 µM
19,COc1ccc(C(=O)N2CCCC(C(=O)NCc3ccccc3)CCNC(=O)CC2)c(OC)n1 (stereo not given),inactive
20,Cc1ccc(-c2c(C(=O)NCc3ccccc3)nc3sccn23)cc1,inactive
21,O=C(CN1CCN(c2ncccn2)[C@@H]2CS(=O)(=O)C[C@@H]21)NCc1ccco1,"inconclusive: 100 µM [inhibitor, single point]"
22,O=C(NCCN1CCOCC1)c1cn2cc(-c3cccc(C(F)(F)F)c3)sc2n1,"inconclusive: 56.2 µM [inhibitor, partial curve, poor fit]"
23,COCc1ccc2c(c1)c(OC(C)(C)C(=O)NCC1CCOCC1)nn2CCC(C)C,"inconclusive: 100 µM [inhibitor, partial curve, poor fit]"
24,CCN1CCN(C(=O)C2CCCN(c3ccnc4ccnn34)C2)CC1 (stereo not given),inactive

row,Compound,Potency
1,Cn1ncc2c(C(=O)Nc3ccccc3Cl)cc(-c3ccccc3F)nc21,inactive
2,CCc1nc2c(c(-c3ccc(OC)cc3)n1)CCN([S+](=O)([O-])c1ccccc1)CC2,inactive
3,O=C(Nc1cnc(-c2ccc(Cl)cc2)nc1)c1cccs1,inactive
4,O=[N+]([O-])c1ccccc1CN1C[C@H](O)C[C@H]1c1nc(Cc2ccc(F)cc2Cl)no1,active: 112 µM
5,Cc1noc(C2CC3(CCN(C(=O)CC4CCCCC4)CC3)CN2C)n1 (stereo not given),"inconclusive: 89.1 µM [inhibitor, single point]"
6,CCCn1ccnc1CN1CCCC12CCN(c1ccc(C(F)(F)F)cn1)CC2,active: 35.5 µM
7,CCn1cc(-c2ccc(Cl)cc2)cc1C(=O)NCCCN1CCCC1=O,"inconclusive: 70.8 µM [inhibitor, partial curve, poor fit]"
8,CN1CCCCCCN(S(=O)(=O)c2ccc3c(c2)CCC3)[C@H]2CCC[C@H]2C1=O,"inconclusive: 50.1 µM [inhibitor, partial curve, poor fit]"
9,CN(CC1CCOC1)S(=O)(=O)c1cc(F)cc(F)c1 (stereo not given),inactive
10,Cc1nccc(N2CCC(Oc3cnc4c(ccn4CCN[S+](C)(=O)[O-])c3)CC2)n1,"inconclusive: 100 µM [inhibitor, partial curve, poor fit]"
11,CNC(=O)[C@H]1C[C@H](Oc2ccccc2)CN1S(=O)(=O)Cc1ccccc1,"inconclusive: 100 µM [inhibitor, single point]"
12,O=C1NCCCN1C1CCN(Cc2cccc(OC(F)(F)F)c2)CC1,"inconclusive: 89.1 µM [inhibitor, partial curve]"
13,COc1ccc(-n2nc3n(c2=O)CCN(Cc2cccn2C)C3)cc1,"inconclusive: 112 µM [inhibitor, single point]"
14,CC(=O)c1cccc(NC(=O)Cn2ccn3nc(-c4ccccc4)c(CO)c3c2=O)c1,"inconclusive: 79.4 µM [inhibitor, single point]"
15,CC(C)C1=NOC2(CCCN(C(=O)c3ccc4c(c3)OCO4)C2)C1 (stereo not given),inactive
16,O=C(c1ccc(F)cc1)N1CCC2(CC1)Cc1ccccc1NC2=O,inactive
17,O=C1Nc2ccc(-c3cccc(C(F)(F)F)c3)cc2C(=O)N2CCN(C(=O)c3ccco3)C[C@@H]12,active: 39.8 µM
18,Cc1cnc(CCNS(=O)(=O)Cc2ccccc2F)n1Cc1ccccc1,"inconclusive: 39.8 µM [inhibitor, partial curve]"
19,COCCN1CCN(C[C@@H]2C=C(C)[C@H](Cc3nnc(-c4ccc(OC)cc4)o3)C[C@H]2C(C)C)CC1,active: 39.8 µM
20,CCc1nc2cc(N3CCCC(C(=O)NC4CCCC4)C3)cnc2nc1CC (stereo not given),inactive
21,Cc1ccc(-c2cn(CC3CCCN(c4cc(C)nc(N)n4)C3)nn2)cc1 (stereo not given),"inconclusive: 44.7 µM [inhibitor, partial curve, poor fit]"
22,c1ccc(CCCN[C@H]2CO[C@H]3[C@@H]2OC[C@@H]3n2cc(-c3ccccc3)nn2)cc1,"inconclusive: 44.7 µM [inhibitor, partial curve, poor fit]"
